Assay results: PubChem BioAssay AID624417 (National Center for Advancing Translational Sciences (NCATS), 2012)
Hit rate of the full screen: of about 410,000 compounds, about 6,400 (1.6%) were called active. Inconclusive means that the source gave no clear call. Such entries were picked first, then a sample of the others. The call rests on the fitted dose curve; in most records, active means well fitted inhibition curve with a large enough effect; inconclusive means small, poorly fitted or top-dose-only effect; inactive means no such curve, though single readings can be large or run the other way. Potencies of inconclusive entries are left out as doubtful fits.
Further: nearly all actives have a fitted effect of over 55% in size.
On the % scale 0 is the no-effect control and ±100 the full control effect; potency means the concentration at half of the fitted maximal effect; tags describe the fitted curve by direction and shape.

The compounds below were run against Glucagon-like peptide 1 receptor (Homo sapiens) (UniProt P43220) (assay: qHTS of GLP-1 Receptor Inverse Agonists (Inhibition Mode)). Conditions: HEK293 GLP-1R CRE-luciferase, luminescence, 24 h, GLP-1R form is constitutively active; activity change, negative = inhibition: at 38.3 µM (top of the series) unless noted.
Sequence of UniProt P43220 (P43220 whole entry, looked up): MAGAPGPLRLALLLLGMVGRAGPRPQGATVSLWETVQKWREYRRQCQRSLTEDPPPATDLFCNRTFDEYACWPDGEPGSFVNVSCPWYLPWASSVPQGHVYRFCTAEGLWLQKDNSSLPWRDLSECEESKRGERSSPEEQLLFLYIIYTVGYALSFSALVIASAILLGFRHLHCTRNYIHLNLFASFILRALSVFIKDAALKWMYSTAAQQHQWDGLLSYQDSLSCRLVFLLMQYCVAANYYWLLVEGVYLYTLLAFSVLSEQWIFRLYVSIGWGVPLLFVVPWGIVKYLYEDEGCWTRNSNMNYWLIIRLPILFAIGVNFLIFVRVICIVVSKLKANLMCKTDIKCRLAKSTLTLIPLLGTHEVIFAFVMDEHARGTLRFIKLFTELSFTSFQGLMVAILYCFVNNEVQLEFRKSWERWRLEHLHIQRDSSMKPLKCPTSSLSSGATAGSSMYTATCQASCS
How it was run: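 Inverse agonism was detected as reduced cAMP-driven luciferase luminescence after 24 h compound treatment. The cells were HEK293 clones expressing constitutively active human GLP-1R with the reporter. Reporter-only and GPR119 cell lines served as counterscreen controls.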
In the case of `N#Cc1cccc(NC(=O)CNc2cccc(S(=O)(=O)N3CCCCC3)c2)c1`, the Potency is reported as inconclusive [inhibitor, partial curve, poor fit]. For `N/C(=C\C(=O)c1cc(Cl)ccc1O)C(Cl)(Cl)Cl`, the Potency was inconclusive [inhibitor, single point]. In the case of `COc1cc(/C=C2\SC(=S)N(C(Cc3ccccc3)C(=O)O)C2=O)ccc1O` (stereo unspecified), the “activity change, negative = inhibition” value is reported as inactive: -3.66%. With `Cc1cc2oc(=O)cc(CN3CCCCC3C)c2cc1C(C)C` (stereo unspecified) the Potency was inconclusive [inhibitor, single point]. For `COc1ccc(-c2nc3sc(CCNC(=O)C(=O)Nc4cc(F)ccc4F)c(C)n3n2)cc1`, the “activity change, negative = inhibition” value was inactive: 9.55%. For `O=C(N/N=C/C=C/c1ccc([N+](=O)[O-])cc1)C1COc2ccccc2O1` (stereo unspecified), the Potency was inconclusive [inhibitor, single point]. `COc1ccc(-n2ccnc2CN2CCCC(CO)(Cc3cccc(OC)c3)C2)cc1` (stereo unspecified) was tested, and the Potency was inconclusive [inhibitor, single point]. For `Cc1cc(Cl)ccc1C(O)c1ncc(-c2ccc(Cl)cc2)[nH]1` (stereo unspecified), the Potency was inconclusive [inhibitor, partial curve]. In the case of `CCCn1nc(NC(C)=O)c2cc3cccc(C)c3nc21`, the Potency is reported as inconclusive [inhibitor, single point]. For `Cc1ccc(OCC(=O)NCC(=O)OCc2cc(=O)n3nc(CC(C)C)sc3n2)cc1`, the “activity change, negative = inhibition” value was inactive: -0.989%. In the case of `COc1cccc(CN(C)C[C@@H]2OCc3cnnn3CCCC(=O)N([C@@H](C)CO)C[C@H]2C)c1`, the “activity change, negative = inhibition” value is reported as inactive: 15%. With `COC(=O)c1ccc(COc2ccc3ccc(=O)oc3c2)o1` the “activity change, negative = inhibition” value was inactive: 5.8%. For `CC(=O)Nc1nnc(-c2ccc3c(c2)CCCC3)o1`, the Potency was inconclusive [inhibitor, single point]. `COCCNC(=O)C1(C)Cc2c(-c3cccc(C(F)(F)F)c3)ccnc2O1` (stereo unspecified) was tested, and the Potency was inconclusive [inhibitor, partial curve, poor fit]. In the case of `Cc1ccc(NC(=O)c2sc(Cl)nc2-c2ccccc2)cc1`, the Potency is reported as inconclusive [inhibitor, single point]. In the case of `Cc1c(Cl)cccc1NC(=S)NCCC(C)C`, the Potency is reported as inconclusive [inhibitor, single point]. With `CN(C(=O)COC(=O)c1sc2ccccc2c1Cl)C1CCCCC1` the Potency was inconclusive [inhibitor, partial curve]. For `Cc1ccccc1-c1csc(N)n1`, the “activity change, negative = inhibition” value was inactive: -13.5%. For `C(=N\N1CCN(Cc2ccccc2)CC1)/c1ccccc1`, the Potency was inconclusive [inhibitor, partial curve, poor fit]. In the case of `Cc1cc(Br)ccc1SCC(=O)OCC(O)=C(C#N)c1nc2ccccc2[nH]1`, the Potency is reported as inconclusive [inhibitor, partial curve, poor fit]. In the case of `COc1cc(CNC(=O)c2ccc(NC(=O)N3CCCCc4ccccc43)cc2)cc(OC)c1OC`, the Potency is reported as inconclusive [inhibitor, full curve, poor fit]. With `COc1ccc(-c2ccnc3nc(Sc4ncc(C(F)(F)F)cc4Cl)nn23)cc1` the Potency was inconclusive [inhibitor, single point]. `CCOc1ccc(OCC)c(NC(=O)CN(C)S(=O)(=O)c2ccc3[nH]c(=O)oc3c2)c1` was tested, and the “activity change, negative = inhibition” value was inactive: -7.81%. In the case of `Cc1ccc(NC(=O)c2nc(S(=O)(=O)Cc3ccc(F)cc3)ncc2Cl)cc1C`, the Potency is reported as inconclusive [inhibitor, single point]. `CCOC(=O)c1cnn(-c2nc(OCC)cc(OCC)n2)c1C` was tested, and the Potency was inconclusive [inhibitor, partial curve, poor fit]. With `CC(Sc1nnnn1-c1ccc(Cl)cc1)C(=O)NCC(=O)Nc1ccc(F)c(F)c1F` (stereo unspecified) the Potency was inconclusive [inhibitor, single point]. For `Cn1nc(C(F)(F)F)c2cc(C(=O)Nc3ccc(C(F)(F)F)cc3)sc21`, the Potency was inconclusive [inhibitor, full curve, poor fit]. With `Clc1cccc(COn2c(-c3ccc(Cl)cc3Cl)nc3ncccc32)c1` the Potency was inconclusive [inhibitor, partial curve, poor fit]. For `Cc1cc(CN2CCN(CCC#N)CC2)c(O)c(C2(C)CCCCC2)c1`, the Potency was inconclusive [inhibitor, partial curve, poor fit]. `COc1ccccc1-c1nnc(NC(=O)c2ccc(S(=O)(=O)N(C)Cc3ccccc3)cc2)o1` was tested, and the Potency was inconclusive [inhibitor, single point]. `CCOC(=O)c1[nH]c(C)c(CCC(=O)N2CCN(c3cc(C)ccc3C)CC2)c1C` was tested, and the Potency was inconclusive [inhibitor, single point]. In the case of `CC1(C(=O)OCC(=O)Nc2nc(-c3ccc(F)c(F)c3)cs2)CC1(Cl)Cl` (stereo unspecified), the Potency is reported as inconclusive [inhibitor, partial curve]. With `Cn1cccc1C(=O)NCCc1ccccc1` the Potency was inconclusive [inhibitor, partial curve, poor fit]. `CCCn1cnc2cc(NCc3ccc(Br)cc3)ccc21` was tested, and the “activity change, negative = inhibition” value was inactive: 13.1%. With `COc1ccc(-c2nnn(CC(=O)N3CCN(c4ccccc4OC)CC3)n2)cc1` the “activity change, negative = inhibition” value was inactive: -23.8%. In the case of `Cc1ccc(C(=O)Nc2ccc(N3CCN(C(=O)c4cccs4)CC3)cc2)c(Cl)c1`, the Potency is reported as inconclusive [inhibitor, single point]. With `COc1ccc(C(=O)NCc2ncccc2C)cc1OC1CCN(C(C)=O)CC1` the Potency was inconclusive [inhibitor, single point]. `O=C(NC1CCCCCC1)C1CCN(S(=O)(=O)c2c(Cl)cccc2Cl)CC1` was tested, and the Potency was inconclusive [inhibitor, single point]. For `Clc1cccc(Cl)c1CSc1nnc(CN2CCOCC2)n1-c1ccccc1`, the Potency was inconclusive [inhibitor, partial curve]. For `OC(c1cc(-c2ccc(Cl)cc2)nc2ccccc12)C1CCCCN1` (stereo unspecified), the Potency was inconclusive [inhibitor, single point]. For `O=C1C=C(c2cccs2)C[C@H](c2ccccc2)[C@H]1n1nnc([N+](=O)[O-])n1`, the Potency was inconclusive [inhibitor, full curve, poor fit].
